Data reported in PubChem BioAssay AID624417 (National Center for Advancing Translational Sciences (NCATS), 2012).
In all, about 410,000 compounds went through this assay and about 6,400 (1.6%) were called active. This list was built around the results that the source calls inconclusive (neither active nor inactive); the mix of calls is not that of the screen. Calls come from the whole dose curve; as a rule, active = well fitted inhibition curve with a large enough effect; inconclusive = small, poorly fitted or top-dose-only effect; inactive = no such curve, though single readings can be large or run the other way. Potencies of inconclusive entries are left out as doubtful fits.

molecular target: Glucagon-like peptide 1 receptor (Homo sapiens) (UniProt P43220); assay: qHTS of GLP-1 Receptor Inverse Agonists (Inhibition Mode); conditions: HEK293 GLP-1R CRE-luciferase, luminescence, 24 h, GLP-1R form is constitutively active; activity change, negative = inhibition: at 38.3 µM (top of the series) unless noted; note: nearly all actives have a fitted effect of over 55% in size
Method in brief: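 Constitutively active GLP-1R drives a cAMP-responsive luciferase in stably transfected HEK293 cells; test compounds are added after overnight (12 h) attachment and left 24 hr, and signal loss in luminescence marks inhibition.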
% is set by controls: 0 for no effect and ±100 for the full control effect; potency is the fitted concentration of half-maximal effect; tags give direction and shape of the fitted curve.

Chain of UniProt P43220 (P43220 whole entry, looked up): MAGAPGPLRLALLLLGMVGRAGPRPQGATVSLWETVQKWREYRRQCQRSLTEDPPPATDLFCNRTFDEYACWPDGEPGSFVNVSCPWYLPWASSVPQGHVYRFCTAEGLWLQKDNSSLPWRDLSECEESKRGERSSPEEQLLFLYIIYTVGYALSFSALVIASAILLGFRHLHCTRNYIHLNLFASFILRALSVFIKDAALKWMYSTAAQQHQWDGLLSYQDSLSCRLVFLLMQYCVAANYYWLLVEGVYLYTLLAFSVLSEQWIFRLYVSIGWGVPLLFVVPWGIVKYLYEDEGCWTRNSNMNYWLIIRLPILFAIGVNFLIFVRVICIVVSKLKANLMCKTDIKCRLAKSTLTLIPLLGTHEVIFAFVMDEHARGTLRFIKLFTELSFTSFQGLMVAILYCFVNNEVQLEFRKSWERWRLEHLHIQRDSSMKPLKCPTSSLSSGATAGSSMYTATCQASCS

| SMILES | Potency | activity change, negative = inhibition |
| --- | --- | --- |
| COc1ccc(S(=O)(=O)Nc2cc3c(C(C)=O)c(C)oc3c3ccccc23)cc1 | inconclusive [inhibitor, full curve] | – |
| COc1ccc(Br)cc1CNC(=O)c1cnc2sc(N3CCCCCC3)nn2c1=O | inactive | – |
| O=C(Cc1ccc(Br)cc1)NCc1ccccc1 | inconclusive [inhibitor, partial curve, poor fit] | – |
| COc1cccc(/C=N/NC(=O)CSc2cccc3cccnc23)c1 | inconclusive [inhibitor, single point] | – |
| CC(C)N(CC#CCC(O)(c1ccccc1)c1ccccc1)C(C)C | inconclusive [inhibitor, partial curve, poor fit] | – |
| Cc1cccc(CN2CCN(C(=O)CCl)CC2)c1 | inconclusive [inhibitor, full curve, poor fit] | – |
| Cc1ccc(CC(=O)N2CCN(c3ccccn3)CC2)cc1 | inactive | – |
| CCCCCCN1C[C@H](n2cc(C3CC3)nn2)[C@@H](O)C[C@@H]1c1ccc(Cl)cc1 | inconclusive [inhibitor, single point] | – |
| CCOC(=O)c1c(C)nc(C)c(C(=O)OCC)c1-c1ccc(Br)cc1 | inconclusive [inhibitor, single point] | – |
| Cc1ccc(CN2C(=O)C(=O)c3cc(Br)cc(C)c32)cc1 | inconclusive [inhibitor, single point] | – |
| CSc1ccc(CCNC(=O)Cn2ncn3c(cc4ccccc43)c2=O)cc1 | inactive | – |
| COc1ccc(NC(=O)C(c2ccncc2)n2c(=O)c(-c3cc4ccccc4[nH]3)nc3ccccc32)cc1 (centres undefined) | inconclusive [inhibitor, single point] | – |
| CCOc1ccc(-n2c(=O)c3c(C)c(C)sc3n(CC(=O)Nc3ccc(CC)cc3)c2=O)cc1 | inactive | – |
| O=C1C(Cc2ccccc2)Nc2ncnc(N3CCN(c4ccccc4)CC3)c2N1Cc1ccccc1 (centres undefined) | inconclusive [inhibitor, single point] | – |
| Cc1ccccc1Nc1c(-c2cccnc2)nc2cccc(C)n12 | inactive | – |
| C=CS(=O)(=O)N(Cc1ccc(Cl)c(Cl)c1)C[C@@H](O)CO | active: 6.31 µM | – |
| Cc1cccc(NC(=O)C2CCCN(S(=O)(=O)c3c(C)n[nH]c3C)C2)c1 (centres undefined) | inactive | – |
| CCC(C(=O)Nc1ccccc1)n1nc(-c2cc(C)ccc2C)ccc1=O (centres undefined) | inconclusive [inhibitor, single point] | – |
| Cc1ccc(S(=O)(=O)N2CCOCC2)cc1C(=O)OCC(=O)N(Cc1ccccc1)C(C)C | inconclusive [inhibitor, single point] | – |
| O=C(CCC1COc2ccccc2O1)NCC1COc2ccccc2O1 (centres undefined) | inconclusive [inhibitor, single point] | – |
| COc1ccc(N2C(=O)C(F)(F)C2c2cccc(F)c2)cc1 (centres undefined) | inconclusive [inhibitor, partial curve, poor fit] | – |
| CC1CCN(C(=O)Cn2cc(SCC(=O)Nc3ccccc3C(F)(F)F)c3ccccc32)CC1 | inconclusive [inhibitor, partial curve, poor fit] | – |

| SMILES | Potency | activity change, negative = inhibition |
| --- | --- | --- |
| CNC(=O)COC(=O)c1ccc([N+](=O)[O-])cc1Cl | inactive | – |
| Cc1ccccc1N=C(c1ccccc1)C1C(=O)c2ccccc2C1=O | inconclusive [inhibitor, partial curve, poor fit] | – |
| O=C(N/N=C/c1ccc2c(c1)OCO2)c1cccc2ccccc12 | inconclusive [inhibitor, partial curve, poor fit] | – |
| CCOC(=O)c1ccc(NC(=O)CN(c2ccc(C)cc2)S(=O)(=O)c2c(C)n[nH]c2C)cc1 | inconclusive [inhibitor, partial curve, poor fit] | – |
| Cc1ccc(C(O)c2ncc(-c3cccc(F)c3)[nH]2)cc1 (centres undefined) | inconclusive [inhibitor, single point] | – |
| COc1ccccc1NC(=O)c1c([N+](=O)[O-])c(C(C)(C)C)nn1C | inconclusive [inhibitor, single point] | – |
| Cc1nn(C)c(C)c1CCNC(=O)Nc1cccc(Cl)c1C | inactive | – |
| O=C(Nc1ccc(Cl)c(Cl)c1)c1ccc(Cn2cc(Cl)cn2)cc1 | inconclusive [inhibitor, partial curve, poor fit] | – |
| CCn1c2ccccc2c2cc(NC(=O)c3cc(C)on3)ccc21 | inconclusive [inhibitor, single point] | – |
| Cc1ccc(Nc2c([N+](=O)[O-])ccc3nonc23)c(C)c1 | inconclusive [inhibitor, full curve, poor fit] | – |
| COc1cc2c(cc1OC)C(COc1ccc(F)cc1)NCC2 (centres undefined) | inconclusive [inhibitor, single point] | – |
| C=CCOc1c(Br)cc(CNc2ccc3[nH]c(=O)[nH]c3c2)cc1OCC | – | inactive: 20.4% [at 7.66 µM] |
| Cn1nccc1C(=O)Nc1ccn(C23CC4CC(CC(C4)C2)C3)n1 | inconclusive [inhibitor, single point] | – |
| CCc1ccccc1NC(=O)CN1CCN(C(=O)c2cc(C3CC3)nn2-c2ccccc2)CC1 | inconclusive [inhibitor, single point] | – |
| COc1ccc(-c2nc3ccccc3n2Cc2ccc(C)cc2)cc1 | inconclusive [inhibitor, partial curve, poor fit] | – |
| C/C(=N\Nc1nc(C)cc(-c2ccccc2)n1)c1ccccc1 | inconclusive [inhibitor, single point] | – |
| O=C(NCC1CCCO1)c1ccc2c(c1)N(Cc1ccc(F)cc1Cl)C(=O)CS2 (centres undefined) | inconclusive [inhibitor, single point] | – |
| C=CCn1c(SCC(=O)NC2CCS(=O)(=O)C2)nnc1-c1ccc(Cl)cc1 (centres undefined) | inconclusive [inhibitor, partial curve, poor fit] | – |
| COc1ccc(-c2noc(N3CCC(C(=O)NCCCN4CCCC(C)C4)CC3)n2)cc1 (centres undefined) | inconclusive [inhibitor, partial curve, poor fit] | – |
| COCCNCc1nc2sc(C)c(-c3ccccc3)c2c(=O)[nH]1 | active: 11.2 µM | – |
| COc1ccccc1-n1c(CNC(=O)c2cccs2)n[nH]c1=S | – | inactive: -11.4% [at 7.66 µM] |
| CCSc1nc2c([nH]c3ccccc32)c(=O)n1-c1cccc(OC)c1 | inconclusive [inhibitor, single point] | – |

| SMILES | Potency | activity change, negative = inhibition |
| --- | --- | --- |
| CSCCC(NC(=O)c1ccc(Cl)cc1Cl)C(=O)N(C)Cc1nc2ccccc2c(=O)[nH]1 (centres undefined) | inconclusive [inhibitor, partial curve] | – |
| O=C1NC(Cc2c[nH]c3ccccc23)C(=O)N1CCOc1ccccc1 (centres undefined) | inconclusive [inhibitor, single point] | – |
| CCCc1c(C(=O)N/N=C/c2ccc(C)s2)nnn1-c1nonc1N | inactive | – |
| CCCCCCCCNS(=O)(=O)CCNCc1ccccc1OC | inconclusive [inhibitor, single point] | – |
| Cc1cccc2c(=O)cc(C)n(Cc3ccccc3)c12 | inconclusive [inhibitor, partial curve, poor fit] | – |
| COc1cccc(N/C=C/C(=O)c2ccc(Br)cc2)c1 | inconclusive [inhibitor, single point] | – |
| COc1ccc(C2=NC3(CCCCCC3)N(CC(=O)Nc3cccc(Cl)c3)C2=O)cc1 | active: 11.2 µM | – |
| C(=C\c1nccc2c1[nH]c1ccccc12)/c1ccccc1 | inconclusive [inhibitor, single point] | – |
| Cc1cccc(NC(=O)c2n[nH]c([N+](=O)[O-])c2Br)c1C | inconclusive [inhibitor, full curve] | – |
| Cc1ccc(NC(=O)c2ccc(C)cc2)cc1 | inconclusive [inhibitor, single point] | – |
| Cc1nc2c(C)cccc2cc1C(=O)N/N=C/c1ccc(N(C)C)cc1 | inconclusive [inhibitor, partial curve, poor fit] | – |
| CCC(C)Sc1nc2c(c(=O)[nH]1)C(c1cccs1)C1=C(CCCC1=O)N2 (centres undefined) | inconclusive [inhibitor, single point] | – |
| COc1cccc(CNC(=O)c2cccc(S(=O)(=O)N3CCN(c4ccc(F)cc4)CC3)c2)c1 | inconclusive [inhibitor, partial curve, poor fit] | – |
| Cc1cc(C)c2nc(NCCCNC(=S)NCCCN(C)C)c(C#N)cc2c1 | inconclusive [inhibitor, partial curve, poor fit] | – |
| COc1ccc(CNC(=O)C23CC4CC(CC(Br)(C4)C2)C3)cc1 | inconclusive [inhibitor, single point] | – |
| c1ccc(C(c2ccccc2)c2noc(CN3CCN(CC4CC4)CC3)n2)cc1 | inconclusive [inhibitor, single point] | – |
| Cc1ccc2nc(-c3ccccc3)c(CC3CCCCC3)n2c1 | inactive | – |
| Cc1cccc(-c2cccc(NC(=O)C3CCCN(C(=O)c4ocnc4C)C3)c2)c1 (centres undefined) | inconclusive [inhibitor, single point] | – |
| NC(=O)NC(=O)COC(=O)c1ccc(Cl)c(S(=O)(=O)N(Cc2ccccc2)c2ccc(Cl)cc2)c1 | inconclusive [inhibitor, single point] | – |
| Cc1noc(C)c1CSCC(=O)Nc1ccc(Br)cc1Cl | inconclusive [inhibitor, partial curve, poor fit] | – |
